Some of the results follow. At the low end of the ranking the order means little.
What follows are sequences tested against T1, GST-Rok-C97-191 (UniProt O34857) (assay: protein binding microarray). Conditions: Rok is a gene silencer of Bacillus subtilis; high values mean tight binding; most listed sequences are background and not binding sites; double strand, one strand shown.
T1 sequence: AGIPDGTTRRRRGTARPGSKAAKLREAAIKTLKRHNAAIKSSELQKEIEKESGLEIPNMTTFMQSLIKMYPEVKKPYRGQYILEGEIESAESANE
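Further: rank score from −0.5 (least bound) to 0.5 (best bound).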

Sequence	binding signal
AGTCATTG	-0.06 E-score
ATGAGCTA	0.0625 E-score
GCTGAAAC	-0.122 E-score
AGTAACTA	0.436 E-score
AGTGCTAA	0.208 E-score
ACTTGGAA	0.0252 E-score
CAGTGAGA	-0.139 E-score
TAGTCTAA	0.139 E-score
ACCGGTCG	-0.167 E-score
AGTCCTTG	-0.0271 E-score
TACCCCCA	-0.178 E-score
CTGTACTA	0.0893 E-score
ACCTATTC	0.0409 E-score
CCGGTCCG	-0.0984 E-score
CGTACGAC	0.00795 E-score
ACCGGAGT	-0.201 E-score
CGGTCACG	0.0924 E-score
CGATGTCA	-0.131 E-score
GCAGTGCA	-0.152 E-score
ACCTCGTC	-0.191 E-score
CGGCGTTC	-0.238 E-score
ACTGTGTA	0.221 E-score
CTGTGCAC	-0.0548 E-score
ACCTGCTC	-0.278 E-score
GGATGTGA	-0.0443 E-score

Sequence	binding signal
CGTACAGA	0.045 E-score
TTCAAGAA	-0.14 E-score
AAAAGGCC	-0.158 E-score
GCAGCGCC	-0.354 E-score
GACTTTCA	-0.191 E-score
TCGTACGA	-0.105 E-score
CAATCCCG	-0.0986 E-score
GTAATCGA	0.0364 E-score
CCATACGA	-0.0868 E-score
GGTCCTGA	-0.143 E-score
CAATACGA	0.0589 E-score
CCCTGCCG	-0.196 E-score
CCAAATGC	0.126 E-score
AAAGACAC	0.000372 E-score
ATGCGAAC	-0.178 E-score
AAGCATAT	-0.026 E-score
GATCACGA	-0.0434 E-score
TGTTATAA	0.18 E-score
GAATGCGC	-0.193 E-score
GGCGCACC	-0.202 E-score
GCATGATA	0.0223 E-score
AGGAAAAA	-0.0818 E-score
AGCCCCCC	-0.427 E-score
ACCCGTTG	-0.159 E-score
CTCCTGGC	-0.135 E-score

Sequence	binding signal
AATAGCGC	0.114 E-score
CAATCCGG	-0.162 E-score
AAATATTG	0.286 E-score
CGACCCTC	-0.201 E-score
AACCGAAG	0.119 E-score
ACACCGAG	-0.124 E-score
GTCAGTAA	0.0288 E-score
AAGGAGCC	-0.27 E-score
CGCCATAA	-0.243 E-score
GCACGCAA	-0.136 E-score
CGGAAGGA	-0.145 E-score
AGTCGAGC	-0.0631 E-score
AATAGAAA	0.388 E-score
ACGACTAC	0.0696 E-score
GTTGTGGA	-0.123 E-score
AACACGAC	-0.0459 E-score
AACACCGA	-0.0134 E-score
CTGTGGTC	-0.142 E-score
CAGAAGTC	-0.107 E-score
CGACAGCA	-0.292 E-score
AGCTGACG	-0.187 E-score
CGAACCGA	-0.0416 E-score
ACAGGAGG	-0.306 E-score
CATTGAAC	0.0279 E-score
GTCCATGA	-0.137 E-score

Sequence	binding signal
ATAGCCAG	-0.106 E-score
ATTTGCTC	0.161 E-score
ATGGGGAC	-0.0853 E-score
ACCCACTA	0.173 E-score
ACGTCGGC	-0.211 E-score
GCGCGACC	-0.258 E-score
CTAGGATC	0.026 E-score
ACAATTGG	0.0304 E-score
CTACCAGA	0.183 E-score
CACCACCG	0.0852 E-score
GAGATTAA	0.213 E-score
GCGACTCC	-0.193 E-score
CGAAACAG	-0.228 E-score
CGCCAGAA	-0.14 E-score
AGTGTCTC	-0.1 E-score
GCACGCAC	-0.00502 E-score
AATTTGGA	-0.0155 E-score
CAGGATTA	-0.0736 E-score
ACCGATCG	-0.131 E-score
GGATGCGA	-0.104 E-score
GAGCCGCC	-0.383 E-score
CCGAACGA	-0.152 E-score
TAATGAGA	0.0923 E-score
ACTGAGCT	0.00475 E-score
ACGCGTTG	-0.2 E-score

Sequence	binding signal
ACGCATTC	-0.013 E-score
CTTAGGCC	-0.244 E-score
AGTGGTCC	-0.131 E-score
AAGGCTGA	-0.203 E-score
CACATAGA	0.101 E-score
CGTACCAA	0.0159 E-score
ACTAAAGT	0.175 E-score
CGGCCTTA	-0.136 E-score
CGGGACGA	-0.118 E-score
GGATAATA	0.236 E-score
GCACTAGC	-0.0811 E-score
CCCCCTAG	-0.227 E-score
ATCATGGC	0.0284 E-score
CAAGAGAC	-0.165 E-score
AAAGCTAG	0.177 E-score
TATCCCCA	-0.0814 E-score
GATCTCTA	0.0918 E-score
TAAACCTA	0.061 E-score
GCTCAGTA	0.0106 E-score
CACTCAGC	-0.113 E-score
GCGTCTCC	-0.189 E-score
ATGGAAAG	-0.0465 E-score
GCGGCTCA	-0.216 E-score
AGTATTCG	-0.0298 E-score
TCGTTACA	0.071 E-score

Sequence	binding signal
GAGGAATC	0.075 E-score
GCCAATAA	0.133 E-score
AACGCAAA	-0.043 E-score
GCCGGAAC	-0.178 E-score
GCACGCGC	-0.129 E-score
CCGCGTCC	-0.259 E-score
AAGGCGCA	-0.207 E-score
ACCTGTAA	-0.0351 E-score
GACAGAGC	-0.172 E-score
ATTCGAAC	0.14 E-score
CTTCTAAA	-0.083 E-score
ATGCATCA	0.121 E-score
GCCCCGCC	-0.319 E-score
GGGCTGCA	-0.307 E-score
CCTCAGGC	-0.26 E-score
AGAATACT	0.236 E-score
GGCTGTCA	-0.334 E-score
AGTACGGC	0.0247 E-score
AGTGCAGA	-0.148 E-score
ACGGAAAC	-0.0722 E-score
AGGACGAT	-0.233 E-score
GGCCTCAC	-0.248 E-score
CAAATGCA	0.00933 E-score
ATCTGGTA	0.115 E-score
CGGTCGCC	-0.346 E-score

Sequence	binding signal
ATTGGGGA	-0.0754 E-score
CATATAGC	0.127 E-score
ACGAACGC	-0.0579 E-score
AAAGGCAA	-0.183 E-score
AGTTTCAT	0.184 E-score
CGTCGTCC	-0.217 E-score
TCTGTACA	-0.0202 E-score
AGATGTTC	0.0735 E-score
ACCAGTAC	0.0676 E-score
ATGCCATC	-0.108 E-score
CAGCCCAA	-0.0664 E-score
AACAAAGA	0.0648 E-score
AGTCTACC	-0.0117 E-score
AATCCGCT	-0.00819 E-score
GGCCTCTA	-0.148 E-score
GAGCACTC	-0.0202 E-score
CCGCCCTA	0.00839 E-score
AACATAGA	0.101 E-score
GTCGTGTA	0.0748 E-score
GGCGAATA	0.0467 E-score
GGCTCGGA	-0.423 E-score
ATCATTCC	0.0814 E-score
CAGTGCTC	-0.332 E-score
GCTGACCA	-0.0571 E-score
TCCTTAGA	-0.0206 E-score

Sequence	binding signal
ACAGGAAC	-0.0814 E-score
AAGGCTCC	-0.162 E-score
CGAACGTA	-0.048 E-score
AGGATTAC	-0.118 E-score
TCTAGTCA	0.196 E-score
TCGCGGCA	-0.19 E-score
ATAAGAAC	0.0806 E-score
TAAGCGCA	-0.025 E-score
ATAAATAT	0.369 E-score
GCACGGCA	-0.224 E-score
CAAATAGC	0.141 E-score
GGAATGCA	-0.0343 E-score
GCATAGCA	0.08 E-score
TATGATAA	0.26 E-score
AGAAGCCC	-0.248 E-score
AGGCGTTC	-0.107 E-score
CTCCCGAG	-0.091 E-score
GTGGAGTA	0.12 E-score
AATAATAG	0.405 E-score
TGCCTTAA	0.0526 E-score
TACCAACA	0.0546 E-score
AGCGGATA	0.215 E-score
ACGCGGTG	-0.255 E-score
GTTAGCGA	0.0595 E-score
TCCCAGGA	0.112 E-score

Sequence	binding signal
ACACTTCT	0.189 E-score
CCCAATTA	0.137 E-score
AAAAGTTT	0.0597 E-score
CCTGAGGC	-0.0873 E-score
CATAGTCA	-0.0508 E-score
GATCCCGC	-0.105 E-score
AATAATAA	0.371 E-score
CTGGTCCA	-0.212 E-score
ATACGGAA	0.219 E-score
AGCGGGTA	-0.195 E-score
ATAGCGAA	0.197 E-score
AGTGTTTG	0.1 E-score
CTCGAGAC	-0.079 E-score
GAAAAACA	0.0708 E-score
ACTTCGTA	0.139 E-score
AGAGACCT	-0.171 E-score
GGCGTGAC	-0.263 E-score
AGGGGTAC	-0.11 E-score
ACGCTGGA	-0.183 E-score
